Laboratory results published in patent publication US20240043489A1, “Cytokine Prodrugs Comprising a Cleavable Linker” (Trutino Biosciences Inc., priority 2020, published 2024).

Tests used:
CTLL-2 cells = experiment: CTLL-2 proliferation assay (MTT); format: cell-based; conditions: cleaved by MMP-2 for 2 hr
Experimental: Recombinant MMP9 and/or MMP2 (R&D Systems) was first activated with p-aminophenylmercuric acetate and this activated protease or equivalent amount of activating solution without the protease was used to digest or mock digest the fusion protein for 1 hr, 2 hr, 4 hr and overnight (18-22 hr) at 37 C. Cleavage assays are set up in TCNB buffer: 50 mM Tris, 10 mM CaCl2), 150 mM NaCl, 0.05% Brij-35 (w/v), pH 7.5. Digested protein was aliquoted and stored at −80° C. prior to testing. Aliquots of digests were subsequently analyzed by SDS-PAGE followed by Western blotting to evaluate the extent of cleavage. Digests were also assessed in functional assays such as CTLL-2 proliferation and HEK-Blue Interleukin reporter assays. As shown in FIGS. 2A-E, essentially complete cleavage by MMP9 protease of the fusion proteins with functional site is seen after overnight incubation. In contrast, proteins containing a scrambled MMP cleavage site are not cut (FIG. 2E).
IL-2 activity was measured using either CTLL-2 cells (ATCC) or the reporter cell line HEK Blue IL2 (Invivogen, San Diego). In brief, for the CTLL-2 assay a titration of untreated and digested samples is added to 40 000 CTLL-2 cells per well in 100 ul medium in a 96-well plate and incubated at 37C in 5% CO2 for 18-22 hr. At the end of this period, 50ug/well Thiazolyl Blue Tetrazolium Bromide (MTT) (Sigma-Aldrich) was added and the plate was incubated for 5 hr at 37C in 5% CO2. Cells were lysed with 100 µl/well 10% SDS (Sigma) acidified with HCl, incubated at 37C for 4 hr, and absorbance was read at 570 nm. Recombinant human or mouse IL-2 (Peprotech and R&D systems respectively) was used as a positive control. FIGS. 3A-B, 3K-L and 3N-P show examples of untreated and digested fusion proteins evaluated in CTLL-2 proliferation assay.

[1] = Aggregation, stability and homogeneity by Coomassie-stained SDS-PAGE; format: physicochemical; conditions: compared with Construct E
From the text: Aggregation, stability, and homogeneity of Construct E, Construct M, and Construct N were compared using Coomassie-stained SDS-PAGE analysis (FIG. 3M).

B1: Construct N: SEQ ID NO 842: hIL2(C125S)-2x(SG4)-MMPcs1-2x(G4S)-hIL2Ra([…])-GSGGGG-hu IgG1 Fc-6xHis (protein)
chain: [no letters for about 150 residues]SGGGGSGGGGGPLGVRGGGGGSGGGGSELCDDDPPEIPHATFKAMAYKEGTMLNCECKRGFRRIKSGSLYMLCTGNSSHSSWDNQCQCTSSATRNTTKQVTPQPEEQKERKTTEMQSPMQPVDQASLPGHCREPPPWENEATERIYHFVVGQMVYYQCVQGYRALHRGPAESVCKMTHGKTRWTQPQLICTGEMETSQFPGEEKPQASPEGRPESETSCGSGGGG[no letters for human IgG1 Fc]
modifications: 6xHis tag
CTLL-2 cells
  CTLL-2 cell proliferation, MMP-2 treated construct: stimulate CTLL-2 cell proliferation in a dose dependent manner
[1]
  aggregation, stability and homogeneity: decreased aggregation and greater stability and homogeneity
